The results in this text go back to paper PMC4336329 (PLoS ONE, 2015).

Out of some 310,000 compounds screened, about 14,000 (4.5%) showed an effect of 50% or more. The effect is printed as a negative number. This is one part of the list.
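Note: peak tail current of the secondary pulse compared with the same well before compound.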

For the assay, the target named is human ether-à-go-go-related gene (hERG) potassium channel (human, UniProt Q12809). Nature of the assay: primary screen, population patch clamp on CHO cells stably expressing hERG.
Chain of human ether-à-go-go-related gene (hERG) potassium channel (Q12809 whole entry, looked up): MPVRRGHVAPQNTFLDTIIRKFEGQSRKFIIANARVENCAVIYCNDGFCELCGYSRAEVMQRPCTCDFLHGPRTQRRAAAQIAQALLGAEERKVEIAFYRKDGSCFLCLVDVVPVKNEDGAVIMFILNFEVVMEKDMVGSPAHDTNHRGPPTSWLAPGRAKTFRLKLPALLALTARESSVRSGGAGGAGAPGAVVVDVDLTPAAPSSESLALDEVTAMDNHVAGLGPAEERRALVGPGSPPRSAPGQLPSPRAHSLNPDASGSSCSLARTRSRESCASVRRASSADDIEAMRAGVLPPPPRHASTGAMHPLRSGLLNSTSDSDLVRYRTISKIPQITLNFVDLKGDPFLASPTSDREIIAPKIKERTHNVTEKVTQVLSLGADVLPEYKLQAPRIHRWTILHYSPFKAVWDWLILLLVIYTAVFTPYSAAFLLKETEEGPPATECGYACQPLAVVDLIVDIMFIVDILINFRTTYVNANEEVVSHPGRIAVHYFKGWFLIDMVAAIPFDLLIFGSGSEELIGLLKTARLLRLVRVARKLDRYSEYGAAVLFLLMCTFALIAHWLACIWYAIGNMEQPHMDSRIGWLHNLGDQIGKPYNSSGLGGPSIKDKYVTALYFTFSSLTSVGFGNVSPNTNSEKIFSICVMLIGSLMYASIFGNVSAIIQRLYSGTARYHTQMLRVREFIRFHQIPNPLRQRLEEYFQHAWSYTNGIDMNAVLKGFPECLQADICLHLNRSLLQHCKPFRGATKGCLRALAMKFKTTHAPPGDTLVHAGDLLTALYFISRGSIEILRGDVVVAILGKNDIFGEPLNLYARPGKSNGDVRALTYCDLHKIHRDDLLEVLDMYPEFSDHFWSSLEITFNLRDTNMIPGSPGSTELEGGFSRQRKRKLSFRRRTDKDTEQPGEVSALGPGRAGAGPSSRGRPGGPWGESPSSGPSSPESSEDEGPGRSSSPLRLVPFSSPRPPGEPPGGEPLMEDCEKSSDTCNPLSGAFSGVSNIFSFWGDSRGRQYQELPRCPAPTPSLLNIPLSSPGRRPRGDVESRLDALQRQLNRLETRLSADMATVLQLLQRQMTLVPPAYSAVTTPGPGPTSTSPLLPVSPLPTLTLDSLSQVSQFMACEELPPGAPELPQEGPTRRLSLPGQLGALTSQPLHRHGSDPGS
As to `CCOc1ccccc1NC(=O)CC1NCCNC1=O` (centres unmarked), the “hERG current change (%, negative = inhibition) at 10uM” value is recorded as -8.89%.
The value for `CC(=O)Nc1ccc(C(=O)C(Cc2ccccc2)N(C)C)cc1.Cl` (centres unmarked) was 19%; that for `Cc1cc(NC(=O)c2ccccc2F)n(-c2nc3ccccc3[nH]2)n1` was 9.75%; that for `CCCNC(=O)C1CNc2ccccc2O1` (centres unmarked) was 8.85%.
Take `O=C(Nc1ccc(F)cc1)c1ccc2nsnc2c1`: the “hERG current change (%, negative = inhibition) at 10uM” value is -10%.
Turning to `O=C(Oc1ccc(F)cc1)N1CCOCC1`, the “hERG current change (%, negative = inhibition) at 10uM” value amounted to 2.9%.
The value for `CCCn1nc(NS(=O)(=O)c2cccc3nonc23)c2cc3cc(C)ccc3nc21` was -4.63%; that for `Cc1nn(Cc2ccccc2)c(C)c1NS(=O)(=O)c1ccccc1` was 1.4%; that for `Cc1nn(Cc2ccc([N+](=O)[O-])cc2)c(=O)n1-c1c(F)cccc1F` was -23.5%.
For the compound `Cc1ccc(CNC(=O)CCC(=O)Nc2nnc(C(C)C)s2)cc1`, the “hERG current change (%, negative = inhibition) at 10uM” value came out at 21%.
For `CCCc1cc2c(OC(=O)CC)c(-c3ccc(C(=O)OCC)o3)c(=O)oc2cc1OC`, the “hERG current change (%, negative = inhibition) at 10uM” value was -2.16%.
As to `COc1cc(-c2nnc(SCC(=O)O)n2-c2ccccc2)cc(OC)c1OC`, the “hERG current change (%, negative = inhibition) at 10uM” value was determined as 32.1%.
Consider `N#C/C(=C\c1ccc(O)c(O)c1)C(=O)Nc1cccc2ncccc12`, for which the “hERG current change (%, negative = inhibition) at 10uM” value is 14.6%.
As for `Cc1ccc(S(=O)(=O)Nc2ccc3c(c2)CCC3)cc1`, the figure is 3.99%.
Take `O=C(Cn1cnc2c(nnn2Cc2ccccc2)c1=O)NCc1ccco1`: the “hERG current change (%, negative = inhibition) at 10uM” value is reported as -0.421%.
The value for `CCOC(=O)Cc1csc(N/N=C\c2ccc(N(C)C)cc2)n1` was 8.64%; that for `c1ccc(N2CCN(c3c4c(nc5ncnn35)CCC4)CC2)cc1` was -42.5%; that for `CCOC(=O)C1=NN(c2ccccc2C)C2=NC(C)=C(C(=O)OC)C(c3cccc(OC)c3)N12` (centres unmarked) was 5.01%.
The value for `CC(C)N(Cc1nc(-c2ccccc2)no1)C(=O)COc1ccccc1` was -34%; that for `CC(C)C(=O)Nc1ccc(Sc2ccc(F)cc2)cc1` was -3.48%; that for `O=C(Nc1ccc2c(c1)CCC2)C1CCN(c2ncccn2)CC1` was 20.6%.
On to `CCCC1=C(C(=O)OCC)C(c2ccc(O)cc2)n2ncnc2N1` (centres unmarked), for which the “hERG current change (%, negative = inhibition) at 10uM” value is 5.09%.
On to `Nc1nc(NS(=O)(=O)c2ccc(Cl)cc2)nn1-c1ccccc1`, for which the “hERG current change (%, negative = inhibition) at 10uM” value is reported as -9.32%.
Take `Cc1ccc(Cn2nnnc2CN2CCC(NC(=O)C(C)(C)C)CC2)cc1.Cl`: the “hERG current change (%, negative = inhibition) at 10uM” value stood at 0.395%.
The value for `CCOC(=O)c1sc(NC(=S)NC(=O)C2CCCC2)cc1C` was 7.72%; that for `COC(=O)c1ccc(S(=O)(=O)N2C3CCC2CC(NC(=O)C2CC2)C3)cc1` (centres unmarked) was -1.57%.
The value for `Cc1ccc(S(=O)(=O)N2CCN(C(=O)CCC(=O)NCc3ccc(F)cc3)CC2)cc1` was -24%; that for `Cc1cccnc1NC1(C(F)(F)F)N=C(c2ccccc2)NC1=O` (centres unmarked) was -14.4%.
Take `Cc1ccc(/C=C/C(=O)NCCc2cccc(Cl)c2)o1`: the “hERG current change (%, negative = inhibition) at 10uM” value is given as -31.1%.
As for `CC1(C)C2([N+](=O)[O-])CN3CN(C2)CC1([N+](=O)[O-])C3`, the figure is 13.1%; as for `O=C(Cc1ccc([N+](=O)[O-])cc1)OCc1c(F)cccc1Cl`, 13.4%; as for `O=c1[nH]c(CN2CCN(c3ccc(O)cc3)CC2)nc2scc(-c3ccc(Cl)cc3)c12`, -10.7%.
The value for `Cc1ccc(CN2CCN(Cc3ccc(OC(C)C)cc3)CC2CCO)o1` (centres unmarked) was -35.5%; that for `CCCCc1ccc(C(=O)NC(C(=O)O)C(C)C)cc1` (centres unmarked) was 14.3%; that for `CCOC(=O)N1CCN(S(=O)(=O)c2ccc(OC)cc2)CC1` was -4.57%.
The value for `Cc1ccc2nc(Cl)c3nnnn3c2c1` was 1.02%; that for `COc1ccc(C)cc1NC(=O)Nc1cccc(C(=O)O)c1` was 13.5%; that for `Cl.NC(N)=NCCCC(NC(=O)c1ccccc1)C(=O)Nc1ccc([N+](=O)[O-])cc1` (centres unmarked) was -2.35%.
For the compound `COc1ccc(/C=N/n2c(N)c(S(=O)(=O)c3cccs3)c3nc4ccccc4nc32)cc1OC`, the “hERG current change (%, negative = inhibition) at 10uM” value stood at 14.3%.
The value for `CCOC(=O)C1CCCN(c2cc(=O)n(Cc3ccc(F)cc3)c(=O)[nH]2)C1` (centres unmarked) was -21.6%; that for `CCCOc1ccc(CCc2n[nH]c(=S)n2-c2ccccc2)cc1` was 8.66%; that for `Cc1ccc(NC(=O)c2sc3ncn(CC(=O)N4CCN(c5ccccn5)CC4)c(=O)c3c2C)cc1Cl` was -7.77%.
As for `CCOC(=O)CSc1nc(C)cc2c1C(=O)OC2`, the figure is -1.31%.
The value for `Cc1cc(C(=O)O)ccc1N=Cc1c(O)ccc2ccccc12` was 8.08%; that for `c1ccc(Oc2ncnc3sccc23)cc1` was 21.7%; that for `CC1(c2nnc(-c3cccc(Cl)c3)o2)CC(c2ccccc2Br)=NO1` (centres unmarked) was -3.78%.
Take `Cc1ccc(OCc2cc(C(=O)N(C)Cc3cnc4ccccn34)no2)cc1C`: the “hERG current change (%, negative = inhibition) at 10uM” value is given as -41.6%.
As for `COC1CCCN(C(=O)c2ccc3nc(Cc4cccc(Cl)c4)oc3c2)C1` (centres unmarked), the figure is -13.1%; as for `O=C(NC(=S)Nc1ccc(N2CCCCC2)c(Cl)c1)c1ccc2c(c1)OCCO2`, 20.2%.
The value for `N#C/C(=C(/O)COc1ccc(Br)cc1)c1nnc2n1CCCCC2` was 17.1%; that for `Cn1c(=O)c2c(SCc3ccccn3)nc(C3CC3)nc2n(C)c1=O` was 6.51%.
As to `CCOC(=O)C1CCN(C(=O)c2cn(CCOC)c(=O)c3c2c2ccccc2n3C)CC1`, the “hERG current change (%, negative = inhibition) at 10uM” value was -15.5%.
The value for `C/C(=N\NC(=O)c1c(Cl)cnn1C)c1ccc(NC(=O)c2ccncc2)cc1` was -1.23%; that for `O=C(CN1C(=O)C2CCCCC2C1=O)Nc1cc(C(F)(F)F)ccc1N1CCCC1` (centres unmarked) was -9.2%.
As for `CCOC(=O)c1sc(NS(=O)(=O)c2ccccc2Cl)nc1C`, the figure is -5.74%; as for `CCOc1ccc(NC(=O)Cn2c(=O)n(CCCC(=O)NC3CCN(Cc4ccccc4)CC3)c(=O)c3ccccc32)cc1`, -38%; as for `O=C(COc1ccccc1)Nc1nnc(S(=O)(=O)N2CCCCCC2)s1`, 2.36%.
With `CC(=O)Nc1cnc(NC(=O)c2cccc(F)c2)cc1C`, the “hERG current change (%, negative = inhibition) at 10uM” value came out at 10.5%.
Turning to `Cc1cc(-c2ccccc2)nc(SCc2ccc(C(=O)O)o2)n1`, the “hERG current change (%, negative = inhibition) at 10uM” value is -3.89%.
Take `COc1ccc(C(=O)Nc2ccc(NC(=O)C(C)C)nc2)cc1`: the “hERG current change (%, negative = inhibition) at 10uM” value came to 18.9%.
As for `CC(C)N1C(=O)C2C(C(=O)NC3CCCCC3)C3C=CC2(O3)C1C(=O)NC1CCCC1` (centres unmarked), the figure is -2.54%; as for `CCOC(=O)c1cnc(-n2nc(C)cc2C)nc1-n1nc(C)cc1C`, -12.8%; as for `CC(=O)Nc1ccc(S(=O)(=O)N2CCN(c3cc(C)nc4ncnn34)CC2)cc1`, -27.9%.
On to `COc1cc2[nH]c3ccccc3c2cc1C`, for which the “hERG current change (%, negative = inhibition) at 10uM” value was determined as 2.45%.
Turning to `CCOC(=O)CCCNC(=O)COC(=O)c1cccc(F)c1`, the “hERG current change (%, negative = inhibition) at 10uM” value amounted to 6.75%.
As for `CSc1ncc(C(=O)Nc2ccc(C(C)=O)cc2)c(-c2ccccc2)n1`, the figure is 6.5%; as for `CCCCc1nc2c(C)c(N)cnc2n1Cc1cccc([N+](=O)[O-])c1`, -44.1%; as for `CS(=O)(=O)N(CC(=O)N1CCCC1)Cc1ccccc1`, 7.66%.
As for `COc1ccc(CCNC(=O)C2CCCN(S(C)(=O)=O)C2)cc1` (centres unmarked), the figure is -5.59%; as for `O=C(Cc1ccc(S(=O)(=O)N2CCCC2)s1)NC1CCCCCC1`, -31.4%.
Consider `Cc1cc(C)c(C(=O)O)c(Cl)n1`, for which the “hERG current change (%, negative = inhibition) at 10uM” value amounted to 5.94%.
As for `O=C(CSc1n[nH]c(=O)[nH]c1=O)Nc1ccc(Br)cc1Br`, the figure is 9.39%.
As for `CCCC(=O)N1c2ccccc2[C@@H](N(C(C)=O)c2ccccc2)C[C@H]1C`, the figure is -4.91%; as for `C/C(=N\NC(=O)c1cccs1)c1ccc(C(=O)O)s1`, 28.3%; as for `COc1cccc2cc(C(=O)NCc3ccccc3Cl)c(=O)oc12`, 6.78%.
As for `Cc1onc(-c2c(Cl)cccc2Cl)c1C(=O)Nc1ccc(N2CCOCC2)cc1`, the figure is -9.68%; as for `CC(/C=C1\SC(=S)N(NC(=O)c2ccc(O)cc2)C1=O)=C\c1ccccc1`, -6.1%.
Turning to `O=C(CS(=O)(=O)Cc1ccccc1)Nc1nc2c(s1)CCCC2`, the “hERG current change (%, negative = inhibition) at 10uM” value is reported as -12.1%.
The value for `COC(C[C@@H]1O[C@H]1C(=O)[C@@H](C)OCc1ccccc1)OC` was 14.2%.
On to `COc1cccc(C2C3=C(N=c4s/c(=C\c5cccc(O)c5)c(=O)n42)c2ccccc2CC3)c1OC` (centres unmarked), for which the “hERG current change (%, negative = inhibition) at 10uM” value stood at 29.1%.
As for `Cn1ccc2ccc(C3=CC(=O)C[C@H](c4ccc(F)cc4)C3)cc21`, the figure is 8.46%.
For `CSc1nnnn1-c1c(C)cccc1C`, the “hERG current change (%, negative = inhibition) at 10uM” value worked out at 12.9%.
Consider `Nc1cccc(C(=O)Nc2ccco2)c1`, for which the “hERG current change (%, negative = inhibition) at 10uM” value is listed as -2.33%.
`O=C(NCc1ccco1)/C(=C/c1cccnc1)NC(=O)c1cccc(Br)c1`: the “hERG current change (%, negative = inhibition) at 10uM” value was -59.6%.
For `CCOC(=O)C1=C(C)NC(=S)N(C=O)C1c1ccccc1` (centres unmarked), the “hERG current change (%, negative = inhibition) at 10uM” value was 22.4%.
For the compound `CCn1cc(C(=O)NCc2ccco2)c(=O)c2ccc(C)nc21`, the “hERG current change (%, negative = inhibition) at 10uM” value was found to be 16.9%.
As for `C=CCNC(=O)/C(C#N)=C/c1ccc(OS(=O)(=O)c2ccc(C)cc2)c(OC)c1`, the figure is 12.5%; as for `CCCC(=O)Nc1ccc(-c2cn3cccnc3n2)cc1`, 3.08%; as for `CC(=O)CCc1ccc(OCCCOc2cccc3cccnc23)cc1`, -11.2%.
